Measured values: PubChem BioAssay AID485294 (National Center for Advancing Translational Sciences (NCATS), 2010)
In all, about 370,000 compounds went through this assay and about 150 (0.041%) were called active. Inconclusive means that the source gave no clear call. Such entries were picked first, then a sample of the others. The call rests on the fitted dose curve; in most records, active means well fitted inhibition curve with a large enough effect; inconclusive means small, poorly fitted or top-dose-only effect; inactive means flat fitted curve, though single readings scatter. Potencies of inconclusive entries are left out as doubtful fits.

What follows are molecules tested against Beta-lactamase (Escherichia coli (strain K12)) (UniProt P00811) (assay: qHTS Inhibitors of AmpC Beta-Lactamase (assay with detergent)). Settings: AmpC hydrolysis of nitrocefin, absorbance 480 nm, 0.01% Triton; activity change, negative = inhibition: at 114 µM (top of the series).
Chain of UniProt P00811 (P00811 whole entry, looked up): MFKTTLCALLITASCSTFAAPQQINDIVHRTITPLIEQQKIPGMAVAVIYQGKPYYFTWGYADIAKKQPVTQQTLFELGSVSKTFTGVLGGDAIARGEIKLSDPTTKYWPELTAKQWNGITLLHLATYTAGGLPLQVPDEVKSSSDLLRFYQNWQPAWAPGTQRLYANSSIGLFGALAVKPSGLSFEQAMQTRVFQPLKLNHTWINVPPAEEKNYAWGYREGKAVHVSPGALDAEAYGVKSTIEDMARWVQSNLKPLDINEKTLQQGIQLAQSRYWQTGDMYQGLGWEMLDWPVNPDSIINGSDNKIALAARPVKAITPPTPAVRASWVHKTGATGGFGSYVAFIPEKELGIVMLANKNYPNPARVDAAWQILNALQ
In short: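 AmpC (5.3 nM in the dispensed reagent) in 20 mM phosphate pH 7.0 with 0.01% (detergent screen) or 0.0001% Triton X-100 was preincubated with compounds for 15 min at room temperature. Nitrocefin was then added from an 800 uM solution, and hydrolysis was followed at 480 nm.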
Further: nearly all actives have a fitted effect of over 25% in size.
Potency means the concentration at half of the fitted maximal effect; tags describe the fitted curve by direction and shape.
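Wherever activity change, negative = inhibition is given: 0% = no-compound wells and -100% = no-enzyme wells.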

| Structure (SMILES) | Potency | activity change, negative = inhibition |
| --- | --- | --- |
| CCN(CC)S(=O)(=O)c1ccc(N2CCCCC2)c(NC(=O)/C=C/c2ccc(OC)c(OC)c2)c1 | inconclusive [inhibitor, full curve, poor fit] |  |
| Cc1cc(NS(=O)(=O)c2ccc(NC(=O)CCc3ccccc3)cc2)no1 | inconclusive [inhibitor, partial curve, poor fit] |  |
| O=C1CC(c2nc3ccccc3[nH]2)CN1Cc1ccccc1 (stereo not given) | inconclusive [inhibitor, full curve, poor fit] |  |
| C=CCn1c(SCC(=O)Nc2c(C)n(C)n(-c3ccccc3)c2=O)nc2scc(-c3ccccc3)c2c1=O | inconclusive [inhibitor, full curve, poor fit] |  |
| COc1ccccc1-c1sc2cc3c(cc2c1C#CCO)OCO3 |  | inactive: 0.0613% |
| [O-]/[N+](=C/c1cccnc1)c1ccc(Br)cc1 | inconclusive [inhibitor, full curve, poor fit] |  |
| N=C1/C(=C/c2ccc(OCc3ccccc3)cc2)C(=O)N=C2SC(CC(=O)N3CCOCC3)=NN12 | inconclusive [inhibitor, full curve, poor fit] |  |
| Cc1ccccc1-c1ccc(CN2CCN(C)C(CCO)C2)cc1 (stereo not given) | inconclusive [inhibitor, full curve, poor fit] |  |
| N#Cc1cc2ccc(N3CCOCC3)cc2cc1C#N | inconclusive [inhibitor, single point] |  |
| COc1ccccc1CCNC(=O)CN1C(=O)c2ccccc2S1(=O)=O | inconclusive [inhibitor, partial curve, poor fit] |  |
| CN1CCN(c2nc3c(c(=O)n(C)c(=O)n3C)n2Cc2ccc(Cl)cc2)CC1 | inconclusive [inhibitor, full curve, poor fit] |  |
| COc1ccc(C2=CC(=O)N(Nc3ccccc3)C2=O)cc1 | inconclusive [inhibitor, full curve, poor fit] |  |
| COC(=O)c1ccccc1COn1c(=O)c[n+]([O-])c2ccccc21 | inconclusive [inhibitor, full curve] |  |
| COc1ccc2ccccc2c1-c1sc(Nc2ccccc2)n[n+]1-c1ccc(F)cc1 |  | inactive: 0.729% |
| CC(C)C[C@H](NC(=O)c1nc[nH]c1C(=O)N[C@@H](CCCCNC(=O)OC(C)(C)C)C(=O)OC(C)(C)C)C(=O)OC(C)(C)C |  | inactive: 1.2% |
| C=CCNC(=S)Nc1ccc(OC)c(S(=O)(=O)N2CCOCC2)c1 | inconclusive [inhibitor, full curve, poor fit] |  |
| Nc1ccc2nn(-c3ccccc3)nc2c1 |  | inactive: -2.51% |
| CCOC(=O)N1CCc2c(sc(NC(=O)c3ccc(S(=O)(=O)N4CCCC4)cc3)c2C#N)C1 | inconclusive [inhibitor, partial curve, poor fit] |  |
| COCCOC(=O)c1c(C)oc2ccc(OC(=O)N(C)C)cc12 | inconclusive [inhibitor, partial curve, poor fit] |  |
| COc1ccc(C(C)(C)C)cc1NC(=O)c1ccc2c(c1)SC1=NS(=O)(=O)CCN12 |  | inactive: 1.84% |

| Structure (SMILES) | Potency | activity change, negative = inhibition |
| --- | --- | --- |
| CC1(c2ccc3ccccc3c2)NC(=O)N(CC(=O)NCC(C)(C)N2CCOCC2)C1=O (stereo not given) | inconclusive [inhibitor, full curve, poor fit] |  |
| COc1ccc(-c2nc(CNS(=O)(=O)c3ccc(OC)c(OC)c3)cs2)cc1 | inconclusive [inhibitor, full curve, poor fit] |  |
| C=CCc1cccc(CNc2c(C)cc(C)cc2C)c1O | inconclusive [inhibitor, single point] |  |
| O=C(NC1CCCCCC1)c1ccccc1-c1ccccc1 | inconclusive [inhibitor, single point] |  |
| COc1cc(/C=N/NC(=O)c2cc(-c3ccccc3)nc3ccccc23)ccc1O |  | inactive: 8.49% |
| COCCn1c(C)cc(C(=O)CSc2cc(C)c3ccccc3n2)c1C | inconclusive [inhibitor, single point] |  |
| Cc1cccc(NS(=O)(=O)c2ccc3oc(=O)ccc3c2)c1C | inconclusive [inhibitor, full curve, poor fit] |  |
| O=P(/C(=N/O)Sc1ccccc1)(N1CCOCC1)N1CCOCC1 |  | inactive: -1.51% |
| CCOc1ccc(S(=O)(=O)N2CCOCC2)cc1NS(=O)(=O)c1ccc(OC)c([N+](=O)[O-])c1 | inconclusive [inhibitor, full curve, poor fit] |  |
| Cc1ccc(-c2noc(CCCC(=O)N3CCOCC3)n2)cc1 | inconclusive [inhibitor, full curve, poor fit] |  |
| CN(C)Cc1cc(C(C)(C)c2cc(CN(C)C)c(O)c(CN(C)C)c2)cc(CN(C)C)c1O | inconclusive [inhibitor, single point] |  |
| Cn1c(SCC(=O)Nc2cc(C(C)(C)C)nn2-c2ccccc2)nc2ccccc21 | inconclusive [inhibitor, single point] |  |
| COc1ccc2c(CC(=O)N[C@@H](Cc3ccccc3)C(=O)O)cc(=O)oc2c1 | inconclusive [inhibitor, single point] |  |
| CCOc1ccc(N2CC(c3nc4ccccc4n3Cc3cccc(Cl)c3)CC2=O)cc1 (stereo not given) |  | inactive: -7.39% |
| CC(=O)Nc1ccc2c(c1)C(=O)N(c1cccc(C)c1)C2=O |  | inactive: -0.472% |
| CCOCCCNC(=O)C(c1ccccc1)N(Cc1cccs1)C(=O)CNC(C)=O (stereo not given) | inconclusive [inhibitor, single point] |  |
| O=C(O)C(Cc1ccccc1)N1C(=O)c2cccc3cccc(c23)C1=O (stereo not given) |  | inactive: -0.822% |
| Cc1ccc(C2C(C(=O)O)c3ccccc3C(=O)N2C)c(C)c1 (stereo not given) | inconclusive [inhibitor, full curve, poor fit] |  |
| CCc1nn(CC(=O)NCCCN2CCCC2=O)c(=O)c2cc3sccc3n12 | inconclusive [inhibitor, full curve, poor fit] |  |
| CC(=O)NC1=NN(C(C)=O)C(C)(c2ccc3ccccc3c2)S1 (stereo not given) |  | inactive: 0.372% |
